Reference: PubChem BioAssay AID624417 (National Center for Advancing Translational Sciences (NCATS), 2012)
Out of some 410,000 compounds screened, about 6,400 (1.6%) were called active. This list was built around the results that the source calls inconclusive (neither active nor inactive); the mix of calls is not that of the screen. Calls follow the shape of the dose curve; as a rule, active = well fitted inhibition curve with a large enough effect; inconclusive = small, poorly fitted or top-dose-only effect; inactive = no such curve, though single readings can be large or run the other way. Potencies of inconclusive entries are left out as doubtful fits.

Each compound was assayed against Glucagon-like peptide 1 receptor (Homo sapiens) (UniProt P43220) (assay: qHTS of GLP-1 Receptor Inverse Agonists (Inhibition Mode)). Settings: HEK293 GLP-1R CRE-luciferase, luminescence, 24 h, GLP-1R form is constitutively active; series mostly up to 38.3 µM.
Sequence of UniProt P43220 (P43220 whole entry, looked up): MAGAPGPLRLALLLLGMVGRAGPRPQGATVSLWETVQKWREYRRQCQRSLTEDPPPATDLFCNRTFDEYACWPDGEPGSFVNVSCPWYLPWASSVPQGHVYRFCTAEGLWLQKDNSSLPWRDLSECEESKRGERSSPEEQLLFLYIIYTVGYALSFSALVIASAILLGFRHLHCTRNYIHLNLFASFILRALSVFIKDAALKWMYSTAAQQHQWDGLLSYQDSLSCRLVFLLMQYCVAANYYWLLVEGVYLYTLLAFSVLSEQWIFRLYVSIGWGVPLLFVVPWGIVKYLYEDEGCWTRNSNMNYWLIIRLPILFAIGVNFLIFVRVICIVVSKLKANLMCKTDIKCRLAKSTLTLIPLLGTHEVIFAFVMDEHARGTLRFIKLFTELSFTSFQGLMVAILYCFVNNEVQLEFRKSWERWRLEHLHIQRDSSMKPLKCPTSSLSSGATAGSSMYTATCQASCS
How it was run: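 Inverse agonism was detected as reduced cAMP-driven luciferase luminescence after 24 h compound treatment. The cells were HEK293 clones expressing constitutively active human GLP-1R with the reporter. Reporter-only and GPR119 cell lines served as counterscreen controls.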
Also: nearly all actives have a fitted effect of over 55% in size.
Potency is read from the fitted curve at half-maximal effect; tags tell the direction and shape of the fitted curve.

Row | Structure (SMILES) | Potency
1 | CCSC1=C(C#N)C(c2ccc(Cl)cc2)C2=C(CCCC2=O)N1 (centres undefined) | inconclusive [inhibitor, partial curve, poor fit]
2 | c1ccc(-c2nc3c4ccccc4ccn3c2Cc2ccsc2)cc1 | inconclusive [inhibitor, single point]
3 | Cc1ccc(S(=O)(=O)C(NC(=O)c2ccccc2)=C(Cl)Cl)cc1 | inconclusive [inhibitor, single point]
4 | COCCn1c(N)c(C(=O)NCc2cccs2)c2nc3ccccc3nc21 | inconclusive [inhibitor, single point]
5 | CC(O)(c1ccccc1)c1nc(-c2ccc(Cl)cc2)cs1 (centres undefined) | inconclusive [inhibitor, single point]
6 | C[C@@H]1CN([C@H](C)CO)C(=O)c2cc(C#CC(C)(C)O)cnc2O[C@@H]1CN(C)C(=O)C1CC1 | inactive
7 | O=C(NCc1ccc(Cl)cc1)c1cccc2c1C(=O)N(CC1CCCO1)C2 (centres undefined) | inconclusive [inhibitor, single point]
8 | CCOC(=O)C(NC(=O)N1CCCCC1)(c1ccccc1)C(F)(F)F (centres undefined) | inconclusive [inhibitor, single point]
9 | Cc1ccc2c(C(=O)N3CCN(c4ccccc4)CC3)cc(-c3cccnc3)nc2c1C | inconclusive [inhibitor, single point]
10 | O=C1CSC(=S)N1Cc1cccs1 | inconclusive [inhibitor, full curve, poor fit]
11 | COc1cccc(C(C(=O)Nc2ccc(F)cc2)N(C(=O)Cn2nnc3ccccc32)C2CC2)c1 (centres undefined) | inconclusive [inhibitor, single point]
12 | COc1ccc(Nc2cc(C(=O)NCCCN(C)C3CCCCC3)c3ccccc3n2)c(OC)c1 | inconclusive [inhibitor, partial curve]
13 | CCOC(=O)C1(CCOc2ccccc2)CCN(Cc2ccc(O)cc2)CC1 | inconclusive [inhibitor, single point]
14 | Cc1ccc(/C=C/c2nc3ccccc3c(=O)n2CCc2ccccc2)cc1 | inconclusive [inhibitor, partial curve, poor fit]
15 | CCCCOc1cc(C)nc(NCc2ccccc2)n1 | inconclusive [inhibitor, single point]
16 | CN(C)c1cccc(-c2cc(Nc3ccc(C(C)(C)C)cc3)ncn2)c1 | inconclusive [inhibitor, partial curve, poor fit]
17 | CC(C)COc1ccc(CNC(=S)N/N=C/c2ccc([N+](=O)[O-])cc2)cc1 | inactive
18 | Cc1ccc(C2/C(=C(\O)c3c(C)nc4ccccn34)C(=O)C(=O)N2CCN(C)C)o1 (centres undefined) | inactive
19 | CCOc1ccc(S(=O)(=O)N2CCN(C(=S)NCC3CCCO3)CC2)cc1 (centres undefined) | inconclusive [inhibitor, single point]
20 | CCCn1c2ccccc2c2cnn(CC(=O)NCCCN(Cc3ccccc3)C(C)C)c(=O)c21 | inconclusive [inhibitor, single point]

Row | Structure (SMILES) | Potency
21 | O=C1NCCN/C1=C\C(=O)c1cccc(Br)c1 | inactive
22 | COc1ccc(OC)c(CN2CCC(CNC(=O)Nc3cccc(Cl)c3)CC2)c1 | inconclusive [inhibitor, partial curve, poor fit]
23 | CCCCC(=O)NC(Nc1nc(C2CC2)cs1)(C(=O)OCC)C(F)(F)F (centres undefined) | inconclusive [inhibitor, partial curve, poor fit]
24 | COc1ccccc1NC(=O)c1ccccc1NC(=O)c1ccccc1C(=O)O | inactive
25 | O=C(C(c1ccccc1)c1ccccc1)N1CCN(CCN2C(=O)c3cccc4cccc(c34)C2=O)CC1 | inconclusive [inhibitor, single point]
26 | Cc1ccc(C)c(NC2=C(Cl)C(=O)OC2OC(C)C)c1 (centres undefined) | inconclusive [inhibitor, partial curve, poor fit]
27 | Cc1ccc(S(=O)(=O)N/N=C\c2cc3c(cc2Br)OCO3)cc1 | inconclusive [inhibitor, single point]
28 | COc1cc(/C=C/C(=O)OCC(=O)N2CCC(Cc3ccccc3)CC2)ccc1O | inconclusive [inhibitor, partial curve, poor fit]
29 | Cc1ccc(C(=O)N2CCN(C(=O)c3ccc(C)cc3)C2)cc1 | inconclusive [inhibitor, partial curve, poor fit]
30 | COc1cc(N(Cc2ccccc2)Cc2ccccc2)c2ncn(C(C)C)c2c1 | inconclusive [inhibitor, partial curve, poor fit]
31 | O=C(/C=C/c1ccco1)NC(=S)Nc1nc(-c2ccc3ccccc3c2)cs1 | inconclusive [inhibitor, full curve, poor fit]
32 | COc1ccc(/C=N\NC(=O)c2ccc(-c3ccccc3)cc2)cc1COC(C)=O | inconclusive [inhibitor, single point]
33 | COc1ccc(NC(=O)N(CCCN(C)C)Cc2cc3cc(OC)ccc3[nH]c2=O)cc1 | inconclusive [inhibitor, single point]
34 | CSCC[C@H](NC(=O)C1CCN(S(=O)(=O)c2ccc(C)cc2C)CC1)c1nc2ccccc2[nH]1 | inconclusive [inhibitor, single point]
35 | CCOc1ccccc1NC(=O)COc1coc(CN2CCCc3ccccc32)cc1=O | inconclusive [inhibitor, partial curve, poor fit]
36 | O=C(N/N=C/c1ccc(O)c(O)c1)NC12CC3CC(CC(C3)C1)C2 | inactive
37 | COc1cc2c3nnc(-c4ccc(F)cc4)c-3cn(Cc3ccc(C)cc3)c2cc1OC | inactive
38 | CC(C)(C)c1ccc(CC(=O)N2CCC2(C)C(=O)NCc2cccc3ccccc23)cc1 (centres undefined) | inconclusive [inhibitor, partial curve, poor fit]
39 | O=C(NCc1cccnc1)c1cc(Sc2ccccc2Cl)nc2ccccc12 | inconclusive [inhibitor, partial curve, poor fit]
